In publication PMC4336329 (PLoS ONE, 2015):
Screen size: about 310,000 compounds; about 2,200 (0.71%) showed an effect of 50% or more. The effect is printed as a negative number. Some of the results follow.

target: human ether-à-go-go-related gene (hERG) potassium channel (human, UniProt Q12809); assay: primary screen, population patch clamp on CHO cells stably expressing hERG
Sequence (Q12809 whole entry, looked up): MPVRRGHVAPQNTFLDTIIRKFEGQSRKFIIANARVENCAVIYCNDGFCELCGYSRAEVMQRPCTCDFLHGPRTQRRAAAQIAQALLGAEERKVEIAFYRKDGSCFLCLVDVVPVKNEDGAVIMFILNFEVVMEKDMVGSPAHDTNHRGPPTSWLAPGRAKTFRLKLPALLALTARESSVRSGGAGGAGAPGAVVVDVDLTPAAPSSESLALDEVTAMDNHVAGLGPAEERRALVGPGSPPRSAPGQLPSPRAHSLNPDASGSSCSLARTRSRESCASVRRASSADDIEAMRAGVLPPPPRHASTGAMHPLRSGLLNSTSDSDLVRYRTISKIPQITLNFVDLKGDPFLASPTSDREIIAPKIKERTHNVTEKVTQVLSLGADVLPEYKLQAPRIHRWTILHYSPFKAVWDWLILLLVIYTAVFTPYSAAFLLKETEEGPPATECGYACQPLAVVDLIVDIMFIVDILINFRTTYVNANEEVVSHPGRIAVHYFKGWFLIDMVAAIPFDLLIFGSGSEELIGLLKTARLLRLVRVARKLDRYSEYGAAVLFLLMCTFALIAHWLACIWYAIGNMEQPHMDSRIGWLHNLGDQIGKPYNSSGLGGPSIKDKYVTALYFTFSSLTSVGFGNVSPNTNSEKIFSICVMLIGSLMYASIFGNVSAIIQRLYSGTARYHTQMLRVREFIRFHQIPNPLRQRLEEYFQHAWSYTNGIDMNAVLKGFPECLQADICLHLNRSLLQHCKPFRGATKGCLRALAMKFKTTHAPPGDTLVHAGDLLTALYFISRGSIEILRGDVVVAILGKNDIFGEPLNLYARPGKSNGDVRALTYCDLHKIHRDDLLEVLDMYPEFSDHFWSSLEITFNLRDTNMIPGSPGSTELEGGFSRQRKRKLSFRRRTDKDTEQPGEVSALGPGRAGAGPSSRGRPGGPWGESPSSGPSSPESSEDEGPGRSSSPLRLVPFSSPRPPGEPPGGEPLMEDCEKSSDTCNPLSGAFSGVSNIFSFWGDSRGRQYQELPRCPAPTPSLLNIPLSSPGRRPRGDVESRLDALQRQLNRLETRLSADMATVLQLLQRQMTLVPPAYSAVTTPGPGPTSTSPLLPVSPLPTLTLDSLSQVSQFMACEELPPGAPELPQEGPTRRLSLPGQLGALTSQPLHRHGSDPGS

SMILES | hERG current change (%, negative = inhibition) at 1uM
COc1ccc(Cl)cc1C(=O)O/N=C(\N)c1ccncc1 | 4.35%
Cc1ccc(C)c(OCc2cc(C(=O)N3CCN(C(=O)c4ccco4)CC3)no2)c1 | 5.61%
O=C(NCc1ccccc1C(F)(F)F)C1CC(c2ccccc2[N+](=O)[O-])=NO1 (centres unmarked) | 7.13%
CSc1nc2ncnc(N)c2[nH]1 | 9.01%
Cl.OC(CN1C2=NCCCN2c2ccccc21)c1ccc(Cl)cc1 (centres unmarked) | -76.2%
COc1ccc(S(=O)(=O)NC(CC(=O)NCc2ccc3c(c2)OCO3)c2ccco2)cc1 (centres unmarked) | 13.4%
Cc1cccc(NC(=O)Cn2c(=O)n(Cc3ccccc3)c(=O)c3c(C)c(C)sc32)c1 | -2.93%
COCCN(Cc1cn[nH]c1-c1ccc2cc(OC)ccc2c1)C(C)C | -0.364%
Cc1cccc(N(Cc2cc3cc(C)ccc3[nH]c2=O)C(=O)c2cccs2)c1 | 8.85%
O=C(NCc1ccncc1)c1ccc(Oc2ccccc2)cc1 | 19%
CCc1sc(C(=O)NCCCn2ccnc2)cc1Br | 13.2%
CC(=O)c1ccc(NC(=O)CCNS(=O)(=O)c2cccc3nonc23)cc1 | 18.6%
Cc1cc2cccc(C)c2nc1SCC(=O)NNC(=O)c1ccco1 | 12%
C#CCOC(=O)c1ccccc1C(=O)O | 12.8%
CC(C)(C)N1CC(OC(N)=O)C1 | 17.2%
O=C(c1cccc(N2C(=O)c3ccccc3C2=O)c1)N1CCCCCC1 | 9%
COc1ccc(C2CC(c3ccccc3)=NN2C(=O)COC(=O)CNC(=O)c2ccccc2)cc1 (centres unmarked) | -1.01%
NC1=NC(=O)C(CC(=O)c2ccc(Cl)cc2)S1 (centres unmarked) | -1.2%
CCOC(=O)C1=C(C)N=c2s/c(=C3/C(=O)Nc4ccccc43)c(=O)n2C1c1ccc(C)cc1 (centres unmarked) | 7.74%
CCn1cnc2sc(C(=O)N(Cc3ccc(N(C)C)cc3)Cc3ccco3)c(C)c2c1=O | -13.3%
Cc1ccc(-c2nnn(CC(=O)N(Cc3cccs3)C(C(=O)NC3CCCC3)c3ccco3)n2)o1 (centres unmarked) | -5.62%
CCCCc1cc(=O)oc2c(C)c(OCC(=O)N3CCC(C(N)=O)CC3)ccc12 | 2.05%
O=C(Nc1nccs1)c1ccc(COc2c(F)c(F)cc(F)c2F)o1 | 4.86%

SMILES | hERG current change (%, negative = inhibition) at 1uM
COc1ccc(CNC(=O)CSc2nnc(Cn3nnc4ccccc43)n2C)cc1 | 12.9%
CC1CN(S(=O)(=O)c2cccc(C(=O)N(C)C3CCN(C)CC3)c2)CC(C)O1.Cl (centres unmarked) | 1.85%
O=C(CCc1ccccc1)NCC(=O)N/N=C/c1ccc(O)cc1O | 7.58%
CC(=O)N1CCOCCOCCN(C(C)=O)CCOCCOCC1 | 16.9%
COc1cccc2cc(C(=O)OCc3ccccc3)c(=O)oc12 | 14.9%
CCOC(=O)C1CCCN(C(=O)C2CCN(C(=O)Nc3ccccc3)CC2)C1 (centres unmarked) | 6.75%
COc1cccc(CC(=O)Nc2nc(-c3cc(OC)ccc3OC)cs2)c1 | 10.8%
CCC(C)Cn1c(S(=O)(=O)O)nc2ccccc21 (centres unmarked) | 13.7%
O=C1Nc2ccc([N+](=O)[O-])cc2OC1CCN1CCN(c2ccccc2)CC1 (centres unmarked) | 1.2%
CCOC(=O)/C(C#N)=C/NC(=O)NC(C)(C)C | 10.7%
CC(C)(C)c1cn(-c2ccc(Cl)cc2)c(=S)[nH]1 | -0.875%
C=CCSc1nc2sc3c(c2c(=O)n1CC)CCc1ccccc1-3 | 8.48%
CCCNC(=O)C1CCN(c2nc(C)cc(C)n2)CC1 | 4.08%
COc1ccc(-c2cc(C(F)(F)F)nc(NCc3ccco3)n2)cc1OC | 14.7%
CN(C)S(=O)(=O)c1ccc(N2CCCC2)c(C(=O)OCC(=O)NC2(C#N)CCCCC2)c1 | 11.6%
O=C1c2cccnc2C(=O)N1Cc1ccc(F)cc1 | -3.34%
CC(=NCCN1CCCCC1)c1c(O)n(-c2ccccc2)c(=O)[nH]c1=O | 16.1%
CC1=CC(C)(C)N(C(=O)CCl)c2ccccc21 | -5.97%
Cc1cccc(C)c1N1CCN(C(=O)Nc2ccc3c(c2)OCCO3)CC1 | -10.1%
O=C(NC(=S)N1CCCC(C(F)(F)F)C1)c1ccc(F)cc1 (centres unmarked) | 13%
CCCCC(=O)Nc1ccc(C(=O)N2CCC(C(=O)OCC)CC2)cc1 | 13.6%
CC(=O)c1ccc(NC(=O)CCc2ccc(C)o2)cc1 | 12.2%
Cn1c(N)c(C(=O)COC(=O)c2ccc(Br)o2)c(=O)n(C)c1=O | 4.94%

SMILES | hERG current change (%, negative = inhibition) at 1uM
Cc1cc[n+](CCc2ccccc2)cc1C.[Br-] | 17.1%
CCOc1ccccc1NC(=O)Nc1ccon1 | 9.96%
COc1ccc(CNC(=O)CNC(C)c2ccc(F)cc2)cc1.O=C(O)C(=O)O (centres unmarked) | 14.5%
N/C(=N\OC(=O)COc1ccc(Cl)cc1)c1cccnc1 | 9.42%
CSc1nsc(/C=C/Nc2ccc(C(=O)O)cc2)c1C#N | 9.46%
COc1cc2c(c(OC)c1)C(c1ccncc1)CC(=O)N2 (centres unmarked) | 5.69%
CCC(=O)N(NC1=NS(=O)(=O)c2ccccc21)S(=O)(=O)c1ccc(C)cc1 | 6.93%
CC(C)CCN1CCNC(=O)C1CC(=O)NCCCN1CCOCC1 (centres unmarked) | 14.7%
CCC1(CC)C(=O)N(Cc2ccccc2)C(=O)N(Cc2ccccc2)C1=O | -0.85%
Cc1cccc(-n2c(Cc3cc(=O)[nH]c(=O)[nH]3)nnc2SC(C)C)c1 | 8.6%
CN(C)c1ccc(CN(C(=O)/C=C/c2ccccc2Cl)C2CCS(=O)(=O)C2)cc1 (centres unmarked) | 13.1%
Cc1ccc(C(=O)Nc2cccc(-c3nc4ncccc4o3)c2)cc1 | 12%
COc1cccc2cc(-c3cc(=O)oc4ccc(O)cc34)oc12 | 9.32%
O=C(O)c1nc(-c2ccccc2)n(-c2cccc(C(F)(F)F)c2)n1 | 5.09%
Cc1cccc(C)c1NC(=S)NC(=O)c1ccccc1F | 8.33%
Cc1ccc(C2=NC(C(F)(F)F)(C(F)(F)F)c3c(n(-c4ccc(F)cc4)c(=O)[nH]c3=O)N2)cc1 | 5.31%
COC(=O)C(Cc1ccc(OC(=O)c2ccc(C)cc2)cc1)N1Cc2ccccc2C1=O (centres unmarked) | -4.45%
COC(=O)Cc1nnc(Nc2cccc(C)c2)c2ccccc12 | 6.41%
CN1CCN(NC(=O)Nc2ccc(Br)cc2)CC1 | 8.8%
O=C(CCNC(=O)c1ccc(Br)cc1)NCc1ccncc1 | 1.07%
Nc1ncn(C(=O)c2ccco2)n1 | 18.6%
CCC(C)(C)C1CCC(=NNC(=S)Nc2ccccc2)CC1 (centres unmarked) | 5.72%
Cc1ccc(NC(=O)c2oc3ccccc3c2C)c([N+](=O)[O-])c1 | 12.6%

SMILES | hERG current change (%, negative = inhibition) at 1uM
CCc1ccc(NC(=O)Cn2cnc3sc(C)c(S(=O)(=O)N4CCOCC4)c3c2=O)cc1 | 0.377%
Cc1noc(C(=O)Nc2cccnc2)c1Cl | 14.8%
O=C(Cc1noc2ccccc12)Nc1ccc(Cl)cc1 | 10.4%
CC1CCCC(NC(=O)c2cccs2)C1C (centres unmarked) | 14.6%
COc1ccccc1CNC(=O)Cc1ccc(OC)c(OC)c1 | 15.3%
O=C(NCCO)C(=O)NCC1OCCCN1S(=O)(=O)c1cccs1 (centres unmarked) | 3.04%
O=C(COC(=O)c1ccccc1C(=O)c1ccc(Cl)cc1)NC(c1ccccc1)c1ccccc1 | 8.91%
CCNC(=S)N/N=C(\C)c1cccc([N+](=O)[O-])c1 | 2.06%
Cc1nn(CC(=O)NCCc2ccccc2)c(C)c1[N+](=O)[O-] | 5.05%
O=C(CNC(=S)N(Cc1ccc(F)cc1)C1CCCCC1)NC1CC1 | -6.38%
N#C/C(=C\c1c[nH]c2ccccc12)C(N)=O | 10.7%
CCCSc1nc2cc(OC)c(OC)cc2c(=N)n1CCCN1CCOCC1 | -31.7%
O=C(COC(=O)C(Cc1ccccc1)NC(=O)c1cccs1)NCc1ccccc1 (centres unmarked) | 3.74%
COc1ccc(CNC(=O)Nc2ccccc2)cc1 | -1.46%
O=C(OCc1ccc([N+](=O)[O-])cc1Cl)c1cnccn1 | 10.1%
Cc1cccc(-c2nc(C#N)c(NC3CCCCC3)o2)c1 | 10.4%
CCC(CC)C(=O)N(c1ccc(F)cc1)C1C=CS(=O)(=O)C1 (centres unmarked) | 6.64%
O=C(Nc1scc(-c2ccccc2)c1C(=O)O)c1ccccc1Cl | 3.39%
Cc1nnc(SCC(=O)N2c3ccccc3Sc3ccccc32)n1N | 12.5%
Cc1cccc(OCc2nc(C#N)c(NCCN(C)C)o2)c1 | -7.23%
Nc1ccccc1SC/C=C/CSc1ccccc1N | 14.9%
CCCn1c(O)c(N=NC(=O)CNC(=O)c2cccnc2)c2ccccc21 | 7.77%
COCCN(CC1CCCN(C2Cc3ccccc3C2)C1)C(=O)CCC(C)=O (centres unmarked) | 7.77%
